This experiment concerns the target SARS-CoV-2 spike protein (Severe acute respiratory syndrome coronavirus 2, UniProt P0DTC2). The note with it: 1% NCT, 30 min, 37° C.

For `O=S(=O)(O)CCNCl` [NCT, N-chlorotaurine], the phenylalanines chlorinated entry is “two”.

The values above are taken from patent US12171732B2, “Compositions and use of N-chlorotaurine for treatment and prevention of respiratory infections” (priority 2021, dated 2024).
